Results: the supplement of paper PMC3334620
Over roughly 33,000 sequences, “E-score (-0.5 to 0.5)” has its median near -0.054; the highest 2% begin near 0.35. The list shows a part of the results.

target: T1, Stb5 (UniProt P38699); assay: PBM E-score (8-mer binding enrichment) (E-score (-0.5 to 0.5)); higher = stronger / more preferred TF binding; most listed sequences are background and not binding sites; details: protein concentration: 200 nM; construct: GST-full length
T1 sequence: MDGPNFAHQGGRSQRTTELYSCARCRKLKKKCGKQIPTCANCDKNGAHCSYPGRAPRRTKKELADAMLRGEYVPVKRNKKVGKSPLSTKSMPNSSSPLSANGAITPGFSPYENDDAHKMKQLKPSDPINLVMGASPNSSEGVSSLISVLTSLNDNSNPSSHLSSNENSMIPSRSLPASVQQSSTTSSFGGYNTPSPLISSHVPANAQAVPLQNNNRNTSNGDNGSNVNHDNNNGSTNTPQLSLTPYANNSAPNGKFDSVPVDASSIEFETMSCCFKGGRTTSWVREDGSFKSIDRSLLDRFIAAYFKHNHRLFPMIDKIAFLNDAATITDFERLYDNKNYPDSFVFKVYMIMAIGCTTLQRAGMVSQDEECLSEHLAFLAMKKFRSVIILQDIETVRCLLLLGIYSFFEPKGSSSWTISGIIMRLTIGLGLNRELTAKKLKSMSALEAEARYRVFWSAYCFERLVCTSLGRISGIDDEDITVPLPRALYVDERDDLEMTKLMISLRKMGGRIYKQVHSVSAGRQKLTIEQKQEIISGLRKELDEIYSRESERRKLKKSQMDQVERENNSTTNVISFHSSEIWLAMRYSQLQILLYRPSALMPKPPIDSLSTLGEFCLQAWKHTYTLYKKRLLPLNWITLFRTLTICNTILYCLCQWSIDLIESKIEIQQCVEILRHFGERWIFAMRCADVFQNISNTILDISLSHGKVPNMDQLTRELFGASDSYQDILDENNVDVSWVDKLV
Experimental: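 Universal 'all 10-mer' protein binding microarrays (Agilent AMADID 015681) probed with GST-tagged S. cerevisiae TFs (full-length or DBD) made by in vitro transcription/translation (PURExpress), about 100-200 nM. Bound TF was detected with fluorescent anti-GST. Each ungapped 8-mer (which stands for itself and its reverse complement) is scored by the PBM enrichment score (E-score), a modified Wilcoxon-Mann-Whitney statistic from -0.5 to +0.5, computed with the Universal PBM Analysis Suite. Scale: above 0.35 generally sequence-specific binding.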

Row | Sequence | PBM E-score
1 | AAGGATAG | -0.00388
2 | TAAAGAAA | 0.039
3 | AGCTACGC | -0.00599
4 | ACGAACGC | -0.125
5 | ACGTTAGG | 0.0231
6 | ATCACCAG | -0.0626
7 | GGTAGTCA | -0.0371
8 | ACTGAAAA | -0.182
9 | CGCGGATA | 0.328
10 | ACGCCTCG | 0.0283
11 | CTTAGCTA | -0.204
12 | CTTCTCTC | -0.115
13 | GAATTCAC | -0.0754
14 | GTATCCAA | -0.035
15 | AAATTAGA | -0.0596
16 | CTCGTTGA | -0.0756
17 | TCCAATCA | 0.0392
18 | CACCGGAA | 0.293
19 | CCATGTGA | -0.247
20 | ATTGACAG | 0.0007
21 | GAAAGTCC | 0.282
22 | ACCTTTGA | -0.207
23 | GCAATCGA | -0.236
24 | CGGGTAAC | 0.00435
25 | ACCAGCGA | 0.0766

Row | Sequence | PBM E-score
26 | ATTACGCG | 0.0522
27 | ACGTCATG | 0.00304
28 | ATCCTCAA | -0.189
29 | CAGCCGCA | -0.0866
30 | CTGCACAG | -0.114
31 | CGGACTAA | 0.428
32 | AGTTTTGC | 0.119
33 | TAGCTAAA | -0.0593
34 | GGGAAGAC | 0.0471
35 | AGGGATGG | -0.135
36 | CACACCAG | -0.335
37 | AATCCCCA | -0.0992
38 | ACGACGCA | 0.0723
39 | CTTCGGGC | 0.038
40 | GGTACTAC | 0.303
41 | GCGAAGCA | 0.109
42 | CGCAGTTC | 0.00085
43 | AGTAGCCC | 0.125
44 | AGTGGCAT | -0.234
45 | CCACTAAG | -0.0427
46 | TATTGGGA | -0.198
47 | GGAGGACC | 0.00687
48 | AGATTTTA | 0.0159
49 | AGACTCAG | -0.115
50 | AGGACTGC | -0.385

Row | Sequence | PBM E-score
51 | CACCGATG | 0.357
52 | CCCGATTA | 0.211
53 | AAAATCAG | -0.128
54 | ATGGATTG | -0.041
55 | CTTATCAA | -0.125
56 | CTCTTATC | -0.11
57 | CAAGGTAA | 0.0554
58 | AGTACTAC | -0.267
59 | GCTCTACA | -0.0127
60 | GGCTGGCA | -0.107
61 | AGAGAAGC | -0.27
62 | AACCATCA | -0.0995
63 | ATTCATAC | 0.0518
64 | CTAAAAAA | 0.252
65 | ATGCAAAT | -0.155
66 | ATGAGTGC | 0.0822
67 | GATTTTAA | 0.128
68 | ACAACAGG | -0.0624
69 | CCGTTGAC | 0.234
70 | ACCGTCTC | 0.0885
71 | ACACCTAC | 0.093
72 | AAAGATCA | -0.192
73 | ATCAAGGA | -0.12
74 | ACCGACCA | 0.332
75 | ATGTAAAA | -0.0462

Row | Sequence | PBM E-score
76 | CCTTTCCC | -0.0122
77 | CTGGTGTA | -0.0635
78 | CCATCTCG | -0.166
79 | ACGATTGG | -0.278
80 | ATGCCTTC | -0.141
81 | AGGGAGCG | -0.0929
82 | AGCGGTTA | 0.122
83 | ATATTCAT | -0.129
84 | CATACCGG | 0.193
85 | ATTTTGGC | 0.00659
86 | ACAGGCCA | -0.22
87 | ACTGGTTA | -0.11
88 | ACTTTAAC | 0.0115
89 | CAGTTGTA | -0.064
90 | CGTCAATC | -0.118
91 | ATATCCCA | 0.05
92 | AGAAGTAG | -0.188
93 | GTACAAAA | 0.0684
94 | TACCCCGA | 0.407
95 | ACTCAAGG | -0.223
96 | CAACGTTC | -0.0112
97 | ATTTCACC | 0.263
98 | AGGTTGGA | -0.0328
99 | CTTTCCTA | -0.141
100 | ATCGTGTG | -0.117

Row | Sequence | PBM E-score
101 | CTGTTGAA | -0.0776
102 | ACTATATC | 0.0952
103 | GTCGGATA | 0.371
104 | ATGGAGAG | -0.123
105 | CGAGGCCA | -0.229
106 | CATAGCTA | -0.27
107 | AATCTCCT | -0.0106
108 | GGGGACCC | -0.145
109 | AGGCGACG | -0.112
110 | CCCGTGAC | 0.155
111 | GATTGCGC | 0.0307
112 | TCAGTCAA | -0.197
113 | CGCGGAAC | 0.263
114 | ACAGCCAA | -0.222
115 | GGCGACAA | 0.0916
116 | CAGGGCGC | 0.00472
117 | CCCTAAGG | -0.167
118 | AGTGTAAG | -0.174
119 | ACAAGGGC | -0.0351
120 | AGCGGAGA | 0.236
121 | ACCTGTGC | -0.236
122 | GGTTGCTA | -0.071
123 | CGAGTGAG | -0.128
124 | GTCTTCGA | -0.208
125 | AAGAGTGA | -0.258

Row | Sequence | PBM E-score
126 | TCTCCAGA | -0.00743
127 | CTACCAAA | -0.0199
128 | GCGTCATA | -0.0207
129 | AGAACACT | -0.173
130 | ATAGCGAG | 0.156
131 | GACAGGGC | -0.0555
132 | GACTGGGA | -0.13
133 | ACTCAGCA | -0.188
134 | AGGTCAAA | -0.19
135 | CTCGTCGC | -0.247
136 | CTCCCAAC | -0.123
137 | ACTCTCAG | -0.263
138 | GACAAGCC | 0.0151
139 | CGTCGACA | 0.0273
140 | ACCCTGCT | -0.0888
141 | CATACAAG | -0.204
142 | GGAATTAA | 0.252
143 | CCGGAAAC | 0.141
144 | GGTCAGAA | 0.135
145 | CCATGAGC | -0.222
146 | ATGTGTTG | -0.3
147 | CTCCGAAC | 0.269
148 | AACCCGCA | 0.229
149 | AGGCTTGG | -0.247
150 | ATAAATCG | 0.0618

Row | Sequence | PBM E-score
151 | AGAAAGTC | 0.0727
152 | GAGTCGAC | -0.119
153 | ACATAGTC | 0.047
154 | CACAGCCC | -0.104
155 | CAAACCGA | -0.0495
156 | GTGAAGGA | -0.186
157 | ATGAACAC | 0.0123
158 | ACGAAAAT | -0.145
159 | AAAAATTT | -0.0291
160 | GCAAAGAA | 0.0661
161 | ATACGATG | -0.089
162 | AGGGCAAG | -0.118
163 | GCTTCGCA | -0.2
164 | AACAGGGG | -0.156
165 | GAGCGAGC | -0.0655
166 | ACGTATGG | 0.0298
167 | ACTTCAAG | -0.273
168 | ACTGTCTA | -0.211
169 | AGTGCGAG | -0.223
170 | GACTCCTC | -0.225
171 | AGAGGCCA | -0.262
172 | TCGTCTAA | -0.136
